# This is one part of the list.
# Assays:
# Assay in all cases: glycan array binding signal (z-score within array); higher = stronger binding
# Details in all cases: glycan notation: IUPAC condensed, linker removed
# [1] = target: Fuc(a1-3)[Gal(b1-4)]GlcNAc(b1-6)[Gal(b1-3)GlcNAc(b1-3)]Gal(b1-4)Glc
# Summary of the method: (§1)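 The binding signal is a Z-score computed within each array and averaged over linkers. Arrays of the same protein sequence at different concentrations or buffers were also averaged together. Data originate from 3228 arrays in the Consortium for Functional Glycomics database, kept only where the protein sequence was available.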
# [2] = target: Fuc(a1-3)[Gal(b1-4)]GlcNAc6S
# Summary of the method: as §1
# [3] = target: Fuc(a1-3)[Gal3S(b1-4)]Glc
# Summary of the method: as §1
# [4] = target: Fuc(a1-3)[Gal3S(b1-4)]GlcNAc
# Summary of the method: as §1
# [5] = target: Fuc(a1-3)[Gal3S(b1-4)]GlcNAc6S
# Summary of the method: as §1
# [6] = target: Fuc(a1-3)[GalNAc(b1-4)]GlcNAc
# Summary of the method: as §1
# [7] = target: Fuc(a1-3)[GalNAc(b1-4)]GlcNAc6S
# Summary of the method: as §1
# [8] = target: Fuc(a1-4)GlcNAc
# Summary of the method: as §1
# [9] = target: Fuc(b1-3)GlcNAc
# Summary of the method: as §1
# [10] = target: Gal(a1-2)Gal
# Summary of the method: as §1
# [11] = target: Gal(a1-3)Gal
# Summary of the method: as §1
# [12] = target: Gal(a1-3)Gal(b1-3)GlcNAc
# Summary of the method: as §1
# [13] = target: Gal(a1-3)Gal(b1-3)GlcNAc(b1-2)Man
# Summary of the method: as §1
# [14] = target: Gal(a1-3)Gal(b1-3)GlcNAc(b1-2)Man(a1-3)[Gal(a1-3)Gal(b1-3)GlcNAc(b1-2)Man(a1-6)]Man(b1-4)GlcNAc(b1-4)GlcNAc
# Summary of the method: as §1
# [15] = target: Gal(a1-3)Gal(b1-3)GlcNAc(b1-3)GalNAc
# Summary of the method: as §1
# [16] = target: Gal(a1-3)Gal(b1-3)GlcNAc(b1-6)GalNAc
# Summary of the method: as §1
# [17] = target: Gal(a1-3)Gal(b1-3)[Fuc(a1-4)]GlcNAc(b1-2)Man(a1-3)[Gal(a1-3)Gal(b1-3)[Fuc(a1-4)]GlcNAc(b1-2)Man(a1-6)]Man(b1-4)GlcNAc(b1-4)GlcNAc
# Summary of the method: as §1
# [18] = target: Gal(a1-3)Gal(b1-4)Glc
# Summary of the method: as §1
# [19] = target: Gal(a1-3)Gal(b1-4)GlcNAc
# Summary of the method: as §1
# [20] = target: Gal(a1-3)Gal(b1-4)GlcNAc(b1-2)Man
# Summary of the method: as §1
# [21] = target: Gal(a1-3)Gal(b1-4)GlcNAc(b1-2)Man(a1-3)[Gal(a1-3)Gal(b1-4)GlcNAc(b1-2)Man(a1-6)]Man(b1-4)GlcNAc(b1-4)GlcNAc
# Summary of the method: as §1
# [22] = target: Gal(a1-3)Gal(b1-4)GlcNAc(b1-3)GalNAc
# Summary of the method: as §1
# [23] = target: Gal(a1-3)Gal(b1-4)GlcNAc(b1-6)GalNAc
# Summary of the method: as §1
# [24] = target: Gal(a1-3)Gal(b1-4)[Fuc(a1-3)]GlcNAc
# Summary of the method: as §1
# [25] = target: Gal(a1-3)Gal(b1-4)[Fuc(a1-3)]GlcNAc(b1-2)Man(a1-3)[Gal(a1-3)Gal(b1-4)[Fuc(a1-3)]GlcNAc(b1-2)Man(a1-6)]Man(b1-4)GlcNAc(b1-4)GlcNAc
# Summary of the method: as §1
# [26] = target: Gal(a1-3)GalNAc
# Summary of the method: as §1
# [27] = target: Gal(a1-3)[Gal(a1-4)]Gal(b1-4)GlcNAc
# Summary of the method: as §1
# [28] = target: Gal(a1-4)Gal(b1-3)GlcNAc(b1-2)Man(a1-3)[Gal(a1-4)Gal(b1-3)GlcNAc(b1-2)Man(a1-6)]Man(b1-4)GlcNAc(b1-4)GlcNAc
# Summary of the method: as §1
# [29] = target: Gal(a1-4)Gal(b1-4)Glc
# Summary of the method: as §1
# [30] = target: Gal(a1-4)Gal(b1-4)GlcNAc
# Summary of the method: as §1
# [31] = target: Gal(a1-4)Gal(b1-4)GlcNAc(b1-2)Man(a1-3)[Gal(a1-4)Gal(b1-4)GlcNAc(b1-2)Man(a1-6)]Man(b1-4)GlcNAc(b1-4)GlcNAc
# Summary of the method: as §1
# [32] = target: Gal(a1-4)Gal(b1-4)GlcNAc(b1-3)Gal(b1-4)Glc
# Summary of the method: as §1
# [33] = target: Gal(a1-4)GlcNAc
# Summary of the method: as §1
# [34] = target: Gal(a1-6)Glc
# Summary of the method: as §1
# [35] = target: Gal(b1-2)Gal
# Summary of the method: as §1
# [36] = target: Gal(b1-3)Gal
# Summary of the method: as §1
# [37] = target: Gal(b1-3)Gal(b1-4)GlcNAc
# Summary of the method: as §1
# [38] = target: Gal(b1-3)GalNAc
# Summary of the method: as §1
# [39] = target: Gal(b1-3)GalNAc(a1-3)[Fuc(a1-2)]Gal(b1-4)Glc
# Summary of the method: as §1
# [40] = target: Gal(b1-3)GalNAc(a1-3)[Fuc(a1-2)]Gal(b1-4)GlcNAc
# Summary of the method: as §1
# [41] = target: Gal(b1-3)GalNAc(b1-3)Gal
# Summary of the method: as §1
# [42] = target: Gal(b1-3)GalNAc(b1-3)Gal(a1-4)Gal(b1-4)Glc
# Summary of the method: as §1
# [43] = target: Gal(b1-3)GalNAc(b1-4)Gal(b1-4)Glc
# Summary of the method: as §1
# [44] = target: Gal(b1-3)GalNAc(b1-4)[Neu5Ac(a2-3)]Gal(b1-4)Glc
# Summary of the method: as §1
# [45] = target: Gal(b1-3)GlcNAc
# Summary of the method: as §1
binder,measurement,setting,value
"BDCA-2 (Homo sapiens), Q8WTT0 (protein) MVPEEEPQDREKGLWWFQLKVWSMAVVSILLLSVCFTVSSVVPHNFMYSKTVKRLSKLREYQQYHPSLTCVMEGKDIEDWSCCPTPWTSFQSSCYFISTGMQSWTKSQKNCSVMGADLVVINTREEQDFIIQNLKRNSSYFLGLSDPGGRRHWQWVDQTPYNENVTFWHSGEPNNLDERCAIINFRSSEEWGWNDIHCHVPQKSICKMKKIYI",glycan array binding signal (z-score),[1],-0.18
same,glycan array binding signal (z-score),[2],-0.162
same,glycan array binding signal (z-score),[3],-0.192
same,glycan array binding signal (z-score),[4],-0.126
same,glycan array binding signal (z-score),[5],-0.165
same,glycan array binding signal (z-score),[6],-0.043
same,glycan array binding signal (z-score),[7],-0.173
same,glycan array binding signal (z-score),[8],-0.153
same,glycan array binding signal (z-score),[9],-0.269
same,glycan array binding signal (z-score),[10],-0.029
same,glycan array binding signal (z-score),[11],-0.284
same,glycan array binding signal (z-score),[12],0.071
same,glycan array binding signal (z-score),[13],-0.093
same,glycan array binding signal (z-score),[14],-0.119
same,glycan array binding signal (z-score),[15],-0.138
same,glycan array binding signal (z-score),[16],-0.16
same,glycan array binding signal (z-score),[17],-0.071
same,glycan array binding signal (z-score),[18],-0.229
same,glycan array binding signal (z-score),[19],-0.137
same,glycan array binding signal (z-score),[20],-0.185
same,glycan array binding signal (z-score),[21],-0.116
same,glycan array binding signal (z-score),[22],-0.176
same,glycan array binding signal (z-score),[23],-0.161
same,glycan array binding signal (z-score),[24],-0.131
same,glycan array binding signal (z-score),[25],-0.069
same,glycan array binding signal (z-score),[26],-0.238
same,glycan array binding signal (z-score),[27],0.032
same,glycan array binding signal (z-score),[28],-0.131
same,glycan array binding signal (z-score),[29],-0.083
same,glycan array binding signal (z-score),[30],-0.198
same,glycan array binding signal (z-score),[31],8.11
same,glycan array binding signal (z-score),[32],-0.174
same,glycan array binding signal (z-score),[33],-0.16
same,glycan array binding signal (z-score),[34],0.015
same,glycan array binding signal (z-score),[35],-0.171
same,glycan array binding signal (z-score),[36],-0.274
same,glycan array binding signal (z-score),[37],-0.171
same,glycan array binding signal (z-score),[38],-0.17
same,glycan array binding signal (z-score),[39],-0.174
same,glycan array binding signal (z-score),[40],-0.185
same,glycan array binding signal (z-score),[41],-0.172
same,glycan array binding signal (z-score),[42],-0.101
same,glycan array binding signal (z-score),[43],-0.114
same,glycan array binding signal (z-score),[44],-0.215
same,glycan array binding signal (z-score),[45],-0.182

# — the supplement of paper PMC8728848
